From a collection of fitness landscapes (doi:10.1126/science.1257360)
Some of the results follow.

B1: PhoQ; a variant is named by its letters at X, in order, P23837 (parent)
chain: MKKLLRLFFPLSLRVRFLLATAAVVLVLSLAYGMVALIGYSVSFDKTTFRLLRGESNLFYTLAKWENNKLHVELPENIDKQSPTMTLIYDENGQLLWAQRDVPWLMKMIQPDWLKSNGFHEIEADVNDTSLLLSGDHSIQQQLQEVREDDDDAEMTHSVAVNVYPATSRMPKLTIVVVDTIPVELKSSYMVWSWFIYVLSANLLLVIPLLWVAAWWSLRPIEALAKEVRELEEHNRELLNPATTRELTSLVRNLNRLLKSERERYDKYRTTLTDLTHSLKTPLXXLQXXLRSLRSEKMSVSDAEPVMLEQISRISQQIGYYLHRASMRGGTLLSRELHPVAPLLDNLTSALNKVYQRKGVNISLDISPEISFVGEQNDFVEVMGNVLDNACKYCLEFVEISARQTDEHLYIVVEDDGPGIPLSKREVIFDRGQRVDTLRPGQGVGLAVAREITEQYEGKIVAGESMLGGARMEVIFGRQHSAPKDE

Variants of: B1
Assay: enrichment ratio after two sorts for PhoP signalling (ratio (wild type AVST 3.29)); higher = more functional
Conditions: with PhoP (E. coli)
QGSD showed an enrichment ratio of no more than 0.25.
In the case of FQEE, the enrichment ratio is reported as no more than 0.25.
Work on PGEG yielded an enrichment ratio of no more than 0.25.
NSND was tested, and the enrichment ratio was no more than 0.25.
GGHW gave an enrichment ratio of no more than 0.25.
Variant YHIM has an enrichment ratio of no more than 0.25.
PSCT was tested, and the enrichment ratio was no more than 0.25.
RRLH was tested, and the enrichment ratio was no more than 0.25.
TPIL gave an enrichment ratio of no more than 0.25.
PCYA gave an enrichment ratio of no more than 0.25.
Work on RSII yielded an enrichment ratio of no more than 0.25.
Variant DENR has an enrichment ratio of no more than 0.25.
NEKS gave an enrichment ratio of no more than 0.25.
With IQSG the enrichment ratio was no more than 0.25.
With FYML the enrichment ratio was no more than 0.25.
VDCV showed an enrichment ratio of no more than 0.25.
In the case of RTRD, the enrichment ratio is reported as no more than 0.25.
Variant RAKG has an enrichment ratio of no more than 0.25.
KGHS gave an enrichment ratio of no more than 0.25.
In the case of NHWF, the enrichment ratio is reported as no more than 0.25.
In the case of QHRF, the enrichment ratio is reported as no more than 0.25.
Work on RKRG yielded an enrichment ratio of no more than 0.25.
Work on KVGA yielded an enrichment ratio of no more than 0.25.
HNHT gave an enrichment ratio of no more than 0.25.
EPFH was tested, and the enrichment ratio was no more than 0.25.
DINA showed an enrichment ratio of no more than 0.25.
YGLC gave an enrichment ratio of 7.13.
FYFA gave an enrichment ratio of no more than 0.25.
INWS was tested, and the enrichment ratio was no more than 0.25.
With DVLW the enrichment ratio was no more than 0.25.
GGAI was tested, and the enrichment ratio was 3.76.
For IGQK, the enrichment ratio was no more than 0.25.
With FVAR the enrichment ratio was no more than 0.25.
With TIPE the enrichment ratio was no more than 0.25.
With MEDW the enrichment ratio was no more than 0.25.
Work on QMFL yielded an enrichment ratio of no more than 0.25.
THYA gave an enrichment ratio of no more than 0.25.
GKCK was tested, and the enrichment ratio was no more than 0.25.
FETI gave an enrichment ratio of no more than 0.25.
For NAFD, the enrichment ratio was no more than 0.25.
AKVY gave an enrichment ratio of 5.81.
Work on YWNP yielded an enrichment ratio of no more than 0.25.
With LQRY the enrichment ratio was no more than 0.25.
Work on SQHM yielded an enrichment ratio of no more than 0.25.
In the case of EGAG, the enrichment ratio is reported as no more than 0.25.
With HELV the enrichment ratio was 2.09.
IFRG was tested, and the enrichment ratio was no more than 0.25.
With LMKE the enrichment ratio was no more than 0.25.
With WSWE the enrichment ratio was no more than 0.25.
Work on AMYL yielded an enrichment ratio of no more than 0.25.
With WSPG the enrichment ratio was no more than 0.25.
Work on GMEP yielded an enrichment ratio of no more than 0.25.
GPYF showed an enrichment ratio of no more than 0.25.
QRTY was tested, and the enrichment ratio was no more than 0.25.
With GRMH the enrichment ratio was no more than 0.25.
Variant TIAS has an enrichment ratio of 11.1.
MNCP gave an enrichment ratio of no more than 0.25.
QAGK gave an enrichment ratio of no more than 0.25.
Variant IIIY has an enrichment ratio of no more than 0.25.
RNTC was tested, and the enrichment ratio was no more than 0.25.
In the case of DSTA, the enrichment ratio is reported as no more than 0.25.
Variant DRID has an enrichment ratio of no more than 0.25.
In the case of TRDR, the enrichment ratio is reported as no more than 0.25.
LPGP showed an enrichment ratio of no more than 0.25.
Work on KDDV yielded an enrichment ratio of no more than 0.25.
SLCT showed an enrichment ratio of 19.2.
LYVS was tested, and the enrichment ratio was no more than 0.25.
For RAHM, the enrichment ratio was no more than 0.25.
GNCA showed an enrichment ratio of 9.24.
With HYPK the enrichment ratio was no more than 0.25.
Work on GPYK yielded an enrichment ratio of no more than 0.25.
WSNK was tested, and the enrichment ratio was no more than 0.25.
With FERT the enrichment ratio was no more than 0.25.
For DSRS, the enrichment ratio was no more than 0.25.
In the case of DRTY, the enrichment ratio is reported as no more than 0.25.
Work on GKTW yielded an enrichment ratio of no more than 0.25.
Work on YIHC yielded an enrichment ratio of no more than 0.25.
GHDQ showed an enrichment ratio of no more than 0.25.
For RHDL, the enrichment ratio was no more than 0.25.
With WPYQ the enrichment ratio was no more than 0.25.
Work on WRTT yielded an enrichment ratio of no more than 0.25.
In the case of GQNR, the enrichment ratio is reported as no more than 0.25.
In the case of IMAT, the enrichment ratio is reported as no more than 0.25.
TNYP gave an enrichment ratio of no more than 0.25.
KHGR showed an enrichment ratio of no more than 0.25.
VCGI was tested, and the enrichment ratio was no more than 0.25.
In the case of YFER, the enrichment ratio is reported as no more than 0.25.
Variant CAIS has an enrichment ratio of no more than 0.25.
For VWAK, the enrichment ratio was no more than 0.25.
In the case of NHCT, the enrichment ratio is reported as no more than 0.25.
In the case of AYNY, the enrichment ratio is reported as no more than 0.25.
FLQR showed an enrichment ratio of no more than 0.25.
Work on IWMD yielded an enrichment ratio of no more than 0.25.
NEVC gave an enrichment ratio of no more than 0.25.
Work on RSYW yielded an enrichment ratio of no more than 0.25.
For RFTY, the enrichment ratio was no more than 0.25.
Variant SGCR has an enrichment ratio of no more than 0.25.
Variant SNHP has an enrichment ratio of no more than 0.25.
Work on FRVW yielded an enrichment ratio of no more than 0.25.
With IPNI the enrichment ratio was no more than 0.25.
VTET showed an enrichment ratio of no more than 0.25.
For LIGK, the enrichment ratio was no more than 0.25.
Variant PLLF has an enrichment ratio of no more than 0.25.
In the case of DVRA, the enrichment ratio is reported as no more than 0.25.
VWPA was tested, and the enrichment ratio was no more than 0.25.
KVIR was tested, and the enrichment ratio was no more than 0.25.
WWVM gave an enrichment ratio of no more than 0.25.
IYWA was tested, and the enrichment ratio was no more than 0.25.
KHGW showed an enrichment ratio of no more than 0.25.
AQWD gave an enrichment ratio of no more than 0.25.
In the case of MPGD, the enrichment ratio is reported as no more than 0.25.
SVMV gave an enrichment ratio of 9.33.
DESC was tested, and the enrichment ratio was no more than 0.25.
YYFM was tested, and the enrichment ratio was no more than 0.25.
Work on VMSS yielded an enrichment ratio of no more than 0.25.
EVGN gave an enrichment ratio of no more than 0.25.
For PWVI, the enrichment ratio was no more than 0.25.
SLYH was tested, and the enrichment ratio was no more than 0.25.
With DREC the enrichment ratio was no more than 0.25.
With PGSY the enrichment ratio was no more than 0.25.
Variant NIKP has an enrichment ratio of no more than 0.25.
Work on LQKH yielded an enrichment ratio of no more than 0.25.
ATMK gave an enrichment ratio of 7.72.
With DRLQ the enrichment ratio was no more than 0.25.
With VIFI the enrichment ratio was no more than 0.25.
In the case of TKGW, the enrichment ratio is reported as no more than 0.25.
GHMG gave an enrichment ratio of no more than 0.25.
MQPS gave an enrichment ratio of no more than 0.25.
MNFF showed an enrichment ratio of 5.49.
Variant VHKF has an enrichment ratio of no more than 0.25.
NTFW was tested, and the enrichment ratio was no more than 0.25.
In the case of GQEM, the enrichment ratio is reported as no more than 0.25.
GVLW showed an enrichment ratio of 1.98.
Variant DYRE has an enrichment ratio of no more than 0.25.
LQRL showed an enrichment ratio of no more than 0.25.
For TAWS, the enrichment ratio was 5.46.
FASW gave an enrichment ratio of no more than 0.25.
Variant HETF has an enrichment ratio of no more than 0.25.
In the case of IQNE, the enrichment ratio is reported as no more than 0.25.
With EYEC the enrichment ratio was no more than 0.25.
With EHWN the enrichment ratio was no more than 0.25.
WYDL showed an enrichment ratio of no more than 0.25.
HRQP was tested, and the enrichment ratio was no more than 0.25.
Variant HTGC has an enrichment ratio of no more than 0.25.
Variant WNQQ has an enrichment ratio of no more than 0.25.
In the case of WEFM, the enrichment ratio is reported as no more than 0.25.
For QVSV, the enrichment ratio was no more than 0.25.
In the case of KKGL, the enrichment ratio is reported as no more than 0.25.
In the case of FTQD, the enrichment ratio is reported as no more than 0.25.
For EPIS, the enrichment ratio was no more than 0.25.
Variant LQFG has an enrichment ratio of 0.358.
HIPP gave an enrichment ratio of no more than 0.25.
HFFK was tested, and the enrichment ratio was no more than 0.25.
